Experimental data: PubChem BioAssay AID651820 (National Center for Advancing Translational Sciences (NCATS), 2012)
Hit rate of the full screen: of about 340,000 compounds, about 12,000 (3.5%) were called active. Inconclusive means that the source gave no clear call. Such entries were picked first, then a sample of the others. The call rests on the fitted dose curve; in most records, active means well fitted inhibition curve with a large enough effect; inconclusive means small, poorly fitted or top-dose-only effect, or another doubt; inactive means no such curve, though single readings can be large or run the other way. No potency is given beside an inconclusive call; the fits are too rough.

Experiment: qHTS Assay for Inhibitors of Hepatitis C Virus (HCV)
Details: Huh7.5.1 HCVcc-Cre (HCVcc is cell-culture hepatitis C virus) infection, luciferase reporter, 44 h; activity change, negative = inhibition: at 41.8 µM (top of the series)
How it was run: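 Seed cells (1,000/well) for 4 h; treat with compound and infect with HCVcc-Cre, moi about 0.5. Incubate 44 h, then detect luciferase activity.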
On the % scale 0 is the no-effect control and ±100 the full control effect; potency means the concentration at half of the fitted maximal effect; tags describe the fitted curve by direction and shape.

Q: For `Cc1ccn2c(Nc3ccccc3C)c(-c3cccnc3)nc2c1`, which Potency is on record?
A: inconclusive [inhibitor, single point]

Q: For `COc1ccc2cc(C(=O)C3CCCN(C(=O)CSc4nnc(C)o4)C3)ccc2c1` (configuration not stated), which Potency is on record?
A: inconclusive [inhibitor, single point]

Q: Which Potency does the source give for `Nn1c(SCC(=O)NNC(=O)c2ccccc2)nnc1-c1ccccc1F` here?
A: inactive

Q: Which Potency does the source give for `CC1=C(SCc2ccccc2)C(=O)c2ccccc2C1=O` here?
A: inconclusive [inhibitor, single point]

Q: Which Potency does the source give for `COc1ccc(O)c(C(=O)c2cnn(C(=O)c3cc(C)oc3C)c2)c1` here?
A: inactive

Q: For `Oc1cc(NCc2cccnc2)ccc1-c1nc2ccccc2o1`, which Potency is on record?
A: inconclusive [inhibitor, single point]

Q: For `O=C1c2cccc3cccc(c23)C(=O)N1CCc1ccccc1`, which Potency is on record?
A: inconclusive [inhibitor, single point]

Q: For `COc1ccc(S(=O)(=O)N2CCOCC2)cc1NC(=O)c1ccc(OC(F)F)cc1`, which Potency is on record?
A: inconclusive [inhibitor, single point]

Q: For `CCOC(=O)c1cnc(SCC(=O)Nc2cccc(OC)c2)nc1N`, which Potency is on record?
A: inconclusive [inhibitor, single point]

Q: Which Potency does the source give for `COc1cc(OC)cc(-c2c(-c3ccc(F)cc3)c3cc(-c4ccc5[nH]ccc5c4)ccc3n2C)c1` here?
A: active: 3.16 µM

Q: With `O=S(c1ccc2ccccc2c1)c1cnns1` (configuration not stated) as the compound, how does the Potency read?
A: inconclusive [inhibitor, single point]

Q: With `Cc1ccc(N=C2C(=S)N(c3ccc(C)cc3)C(=N)N2/N=C/c2ccc(Cl)cc2)cc1` as the compound, how does the Potency read?
A: inconclusive [inhibitor, partial curve]

Q: Which Potency does the source give for `CCOC(=O)C1CCN(C(=O)COC(=O)c2cccc(NS(=O)(=O)c3ccccc3)c2)CC1` here?
A: inconclusive [inhibitor, partial curve]

Q: With `Cc1ccc(NC(=O)c2ccc3c(c2)OCCO3)cc1S(=O)(=O)Nc1cccc(Cl)c1` as the compound, how does the Potency read?
A: active: 10 µM

Q: With `COC(=O)N/N=C/c1ccc(OCCSc2ccc(Cl)cc2)c(OC)c1` as the compound, how does the Potency read?
A: inconclusive [inhibitor, single point]

Q: For `COc1ccc(Cl)cc1C(=O)NNC(=O)C1CCCO1` (configuration not stated), which Potency is on record?
A: inconclusive [inhibitor, partial curve]

Q: With `C=CCc1ccc(OCCn2nnc3ccccc32)c(OC)c1` as the compound, how does the Potency read?
A: inconclusive [inhibitor, partial curve, poor fit]

Q: For `C#CCOCCOCCOCCNc1nc(N2CCN(C(=O)[C@H](C)n3cc(CCCN=C(N)N)nn3)CC2)nc(N2CCN(C(=O)[C@H](C)n3cc(CCCN=C(N)N)nn3)CC2)n1`, which Potency is on record?
A: inactive

Q: For `CC1(C)Nc2ccccc2C(=O)N1c1ccc(Br)cc1`, which Potency is on record?
A: inactive

Q: Which Potency does the source give for `O=C1Nc2ccccc2C1Cc1ccccc1` (configuration not stated) here?
A: inactive

Q: With `CN(C)CCCNC(=S)NCCNc1nc2cc3c(cc2cc1C#N)OCO3` as the compound, how does the Potency read?
A: inconclusive [inhibitor, partial curve]

Q: With `Nc1ccc2oc(-c3cccc(Br)c3)nc2c1` as the compound, how does the Potency read?
A: inconclusive [inhibitor, single point]

Q: With `Cc1cccc(NC(=O)c2cc(-c3ccc(C)c(C)c3O)n[nH]2)c1` as the compound, how does the Potency read?
A: inconclusive [inhibitor, partial curve]

Q: Which Potency does the source give for `CCc1cccc(NC(=O)CS(=O)Cc2nc(-c3ccc(C)cc3)oc2C)c1` (configuration not stated) here?
A: inconclusive [inhibitor, single point]

Q: For `O=S(=O)(Nc1ccc(-c2nc3cccnc3s2)cc1)c1ccc(Cl)s1`, which Potency is on record?
A: inactive

Q: With `CCCCOc1ccc(NC(=O)CN2CCN(CC)CC2)cc1` as the compound, how does the Potency read?
A: inconclusive [inhibitor, single point]

Q: Which Potency does the source give for `CC(C)(C)CC(=O)Nc1cc(S(=O)(=O)N2CCCCCC2)ccc1Cl` here?
A: inconclusive [inhibitor, single point]

Q: For `O=C(CSc1ccccn1)Nc1ccc2c(c1)C(=O)c1ccccc1C2=O`, which Potency is on record?
A: inconclusive [inhibitor, partial curve]

Q: Which Potency does the source give for `Cc1cc(NCCCN2CCOCC2)n2ncc(-c3ccccc3)c2n1` here?
A: inconclusive [inhibitor, partial curve]

Q: Which Potency does the source give for `CCc1ccc(C(=O)C(C)OC(=O)c2cccc(S(=O)(=O)N3CCOCC3)c2)cc1` (configuration not stated) here?
A: inconclusive [inhibitor, partial curve]

Q: For `N#CCCn1nc(-c2ccc(Br)cc2)cc1Nc1ccccc1NC(=O)C(F)(F)F`, which Potency is on record?
A: inactive

Q: With `Cn1c(O)c(/C=N/NC(=O)c2ccncc2)c(=O)n(C)c1=S` as the compound, how does the Potency read?
A: inactive

Q: Which Potency does the source give for `CCOC(=O)C1NN=C(C(=O)c2ccc(C)cc2)C1c1ccc(C)cc1` (configuration not stated) here?
A: inactive

Q: For `CCN(CC)S(=O)(=O)c1cc(C(=O)N2CCc3ccccc32)ccc1Cl`, which Potency is on record?
A: inconclusive [inhibitor, partial curve, poor fit]

Q: For `Cc1cc(Cl)ccc1NNC(=O)c1cccs1`, which Potency is on record?
A: inconclusive [inhibitor, partial curve]

Q: With `CCS(=O)(=O)N1CCC(C(=O)Oc2ccc(C)c(C)c2)CC1` as the compound, how does the Potency read?
A: inactive

Q: Which Potency does the source give for `CCc1ccc(NC(=O)CS(=O)CC(=O)NCC2OCCc3ccccc32)cc1` (configuration not stated) here?
A: inconclusive [inhibitor, single point]

Q: For `O=C(C1CCN(S(=O)(=O)c2cccc3cccnc23)CC1)N1CCN(C2CCCCC2)CC1`, which Potency is on record?
A: inconclusive [inhibitor, single point]

Q: For `C=CC1=C(C(=O)O)N2C(=O)C(NC(=O)Cc3ccccc3)C2SC1` (configuration not stated), which Potency is on record?
A: inactive

Q: Which Potency does the source give for `CCOc1ccccc1NC(=O)c1cccc(NC(=O)CC(c2ccccc2)c2ccccc2)c1` here?
A: inconclusive [inhibitor, partial curve]

Q: For `CCCCOc1ccc(C(=O)NCC(=O)NC2CCN(Cc3ccccc3)CC2)cc1`, which Potency is on record?
A: inconclusive [inhibitor, single point]

Q: Which Potency does the source give for `O=C(O)c1cc(=O)c2c(OCC(O)COc3cccc4oc(C(=O)O)cc(=O)c34)cccc2o1` here?
A: inconclusive [inhibitor, full curve, poor fit]

Q: With `NC(=O)c1cc2ccccc2o/c1=N\NC(=O)c1ccccc1O` as the compound, how does the Potency read?
A: inconclusive [inhibitor, single point]

Q: With `O=C(COc1ccccc1)N[C@@H]1c2ccccc2CC[C@H]1OCc1ccccc1` as the compound, how does the Potency read?
A: inconclusive [inhibitor, single point]

Q: Which Potency does the source give for `CNS(=O)(=O)c1cc(NC(=O)c2cccc3cccnc23)ccc1C` here?
A: inconclusive [inhibitor, partial curve]

Q: With `O=c1c(O)c(-c2ccccc2)oc2cc(O)cc(O)c12` as the compound, how does the Potency read?
A: inactive

Q: Which Potency does the source give for `COc1ccc(CCOC2OC(CO)C(OC(=O)/C=C/c3ccc(O)c(OC)c3)C(O[C@H]3O[C@@H](C)[C@H](O)[C@@H](O)[C@H]3O)C2O)cc1O` (some centres not stated) here?
A: inactive

Q: Which Potency does the source give for `COc1ccc(-c2cc(=Nc3cccc(C(=O)O)c3)c3cc(C)ccc3o2)cc1` here?
A: inconclusive [inhibitor, single point]

Q: For `CCOC(=O)c1c(-c2cccs2)csc1NC(=O)CSc1ncn[nH]1`, which Potency is on record?
A: inconclusive [inhibitor, partial curve]

Q: For `CCCCCCN(C(=O)CCCN1C(=O)NC(c2ccc(-c3ccccc3)cc2)C(C(=O)OCc2ccccc2)=C1C)C(C)C(=O)NCCCC` (configuration not stated), which Potency is on record?
A: inconclusive [inhibitor, single point]

Q: Which Potency does the source give for `Cc1cc(N2CCOCC2)nc2ccc(NC(=S)NCCC(C)C)cc12` here?
A: active: 10 µM

Q: Which Potency does the source give for `O=C(NCC1CCCCC1)NCC1CCCCC1` here?
A: inactive

Q: With `CN1C(CC(=O)Nc2ccc(Cl)cc2Cl)c2ccccc2CC1(C)C` (configuration not stated) as the compound, how does the activity change, negative = inhibition read?
A: inconclusive: -57.9% [inhibitor]

Q: Which Potency does the source give for `CC(NC(=O)c1cccs1)C(c1cccs1)N1CCN(c2ccccc2)CC1` (configuration not stated) here?
A: inconclusive [inhibitor, single point]

Q: With `O=C(O)CN1CCNCCN(CC(=O)O)CCNCC1` as the compound, how does the Potency read?
A: inconclusive [inhibitor, partial curve]

Q: With `O=S(=O)(c1ccc(Cl)cc1Cl)n1ccc2cccnc21` as the compound, how does the Potency read?
A: inconclusive [inhibitor, single point]

Q: Which Potency does the source give for `COc1cc2cc(CN(CCc3ccccc3C)C(=S)NCCCN(C)C)c(=O)[nH]c2cc1OC` here?
A: inconclusive [inhibitor, partial curve]

Q: Which Potency does the source give for `Cc1cccc(NC(=O)COc2coc(CN3CCN(Cc4ccccc4)CC3)cc2=O)c1` here?
A: inconclusive [inhibitor, single point]

Q: Which Potency does the source give for `CCN(CC)CCn1c2c(c(SCC(=O)Nc3nc(C)cs3)nc1=O)CCCC2` here?
A: inconclusive [inhibitor, single point]

Q: For `CCCCC(=O)Nc1nc(C)c(-c2csc(Nc3ccccc3OC)n2)s1`, which Potency is on record?
A: inactive

Q: Which Potency does the source give for `CCCOc1cc(C)c(S(=O)(=O)NC2CC(C)(C)NC(C)(C)C2)cc1C` here?
A: inconclusive [inhibitor, single point]

Q: With `O=C(c1ccc(CNS(=O)(=O)c2ccc(Br)cc2)cc1)N1CCCCCC1` as the compound, how does the Potency read?
A: inconclusive [inhibitor, single point]

Q: For `CC(=O)c1cc2c(cc1NC(=O)CSc1ccc(S(=O)(=O)N(C)C)cn1)OCO2`, which Potency is on record?
A: inconclusive [inhibitor, partial curve]

Q: For `COc1cc(OC)cc(C(=O)N2CCN(c3ccccc3F)CC2)c1`, which Potency is on record?
A: inconclusive [inhibitor, single point]

Q: For `CC(=O)C(C)Oc1ccc2c3c(c(=O)oc2c1C)CCCC3` (configuration not stated), which Potency is on record?
A: active: 10 µM

Q: For `Cc1ccccc1-n1c(C)cc(/C=C(\C#N)C(=O)NCC2CCCO2)c1C` (configuration not stated), which Potency is on record?
A: inactive

Q: With `COc1ccc(C(=O)Nc2cccc(C)c2)cc1S(=O)(=O)N1CCOCC1` as the compound, how does the Potency read?
A: inconclusive [inhibitor, single point]
